Patent US20260199505A1, “COMBINATION THERAPY COMPRISING BISPECIFIC ANTIBODIES COMPRISING AN NRP1 BINDING DOMAIN” (Pinetree Therapeutics, Inc., priority 2022, published 2026)

Tests used:
H1975-HGF = H1975-HGF (HGF-overexpressing) xenograft model; format: in vivo, mouse
Protocol: The H1975-HGF cell line was prepared by recombinantly engineering the H1975 cell line to express HGF by standard methods. Thus, the H1975-HGF xenograft model represents a dual activation model in which both the EGFR and cMET pathways are constitutively activated.

H1975 = H1975 (Osimertinib-sensitive, parental) xenograft mouse model; format: in vivo; details: EGFR double mutations, unpublished data
In vitro cell viability = format: cell-based
H1975-OR = test: Osimertinib-resistant mouse xenograft model (H1975-OR); format: in vivo; details: EGFR double mutations, unpublished data
Source text: Panitumumab is a fully humanized anti-EGFR monoclonal antibody, which binds to EGFR and block the EGFR signaling. Osimertinib is an EGFR tyrosine kinase inhibitor.

B1: EGFR degrader: bispecific antibody (EGFR×NRP1 Ab) that specifically binds to EGFR and NRP1; polypeptide sequences SEQ ID NOs: 11 and 12 (antibody)
heavy: QVQLQESGPGLVKPSETLSLTCTVSGGSVSSGDYYWTWIRQSPGKGLEWIGHIYYSGNTNYNPSLKSRLTISIDTSKTQFSLKLSSVTAADTAIYYCVRDRVTGAFDIWGQGTMVTVSS[sequence of human IgG1 constant region not given]GGGGSGGGGSGGGGSEVQLLESGGGLVQPGGSLRLSCAASGFTFSSYAMSWVRQAPGKGLEWVSQISPAGGYTNYADSVKGRFTISRDNSKNTLYLQMNSLRAEDTAVYYCARGELPYFRMSKVMDVWGQGTLVTVSSGGGGSGGGGSGGGGSEIVLTQSPGTLSLSPGERATLSCRASQFLSSYLAWYQQKPGQAPRLLIYGASARASGIPDRFSGSGSGTDFTLTISRLEPEDFAVYYCQQYLASPATFGQGTKVEIK
light: DIQMTQSPSSLSASVGDRVTITCQASQDISNYLNWYQQKPGKAPKLLIYDASNLETGVPSRFSGSGSGTDFTFTISSLQPEDIATYFCQHFDHLPLAFGGGTKVEIKRTVAAPSVFIFPPSDEQLKSGTASVVCLLNNFYPREAKVQWKVDNALQSGNSQESVTEQDSKDSTYSLSSTLTLSKADYEKHKVYACEVTHQGLSSPVTKSFNRGEC
H1975-HGF; H1975-HGF, second set, Osimertinib 10 mg/kg i.p. QD, Crizotinib 20 mg/kg i.p. QD, EGFR degrader 15 mg/kg i.p. QW
  tumor volume over time (FIG. 6B): did exhibit tumor growth inhibition
H1975-HGF; Osimertinib-refractory (H1975-HGF) xenograft, EGFR double mutations, unpublished data
  tumor growth: significantly inhibits tumor growth
H1975
  tumor growth: significantly inhibits tumor growth
In vitro cell viability
  in vitro cell viability: reduces in vitro cell viability
H1975-OR
  tumor growth: significantly inhibits tumor growth
